# Test results: the supplement of paper PMC8728848
# The other results are listed elsewhere or left out.
# Experiments:
# Assay in all cases: glycan array binding signal (z-score within array); higher = stronger binding
# Conditions in all cases: glycan notation: IUPAC condensed, linker removed
# [1] = target: Gal6S(b1-4)Glc6S
# Method in brief: (§1)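 The binding signal is a Z-score computed within each array. Data were drawn from 3228 arrays in the Consortium for Functional Glycomics database, restricted to those with a known protein sequence. Scores were averaged over arrays of the same protein sequence at different concentrations or buffers, and over linkers, and negative values can be taken as non-binding.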
# [2] = target: Gal6S(b1-4)GlcNAc
# Method in brief: as §1
# [3] = target: Gal6S(b1-4)GlcNAc6S
# Method in brief: as §1
# [4] = target: GalNAc(a1-3)Gal
# Method in brief: as §1
# [5] = target: GalNAc(a1-3)GalNAc
# Method in brief: as §1
# [6] = target: GalNAc(a1-3)GalNAc(b1-3)Gal(a1-4)Gal(b1-4)Glc
# Method in brief: as §1
# [7] = target: GalNAc(a1-3)GalNAc(b1-3)Gal(a1-4)Gal(b1-4)GlcNAc
# Method in brief: as §1
# [8] = target: GalNAc(b1-3)Gal
# Method in brief: as §1
# [9] = target: GalNAc(b1-3)Gal(a1-4)Gal(b1-4)GlcNAc
# Method in brief: as §1
# [10] = target: GalNAc(b1-3)Gal(a1-4)Gal(b1-4)GlcNAc(b1-3)Gal(b1-4)Glc
# Method in brief: as §1
# [11] = target: GalNAc(b1-3)Gal(a1-6)Gal(b1-4)Glc
# Method in brief: as §1
# [12] = target: GalNAc(b1-3)GalNAc
# Method in brief: as §1
# [13] = target: GalNAc(b1-3)GlcNAc
# Method in brief: as §1
# [14] = target: GalNAc(b1-4)Gal(b1-4)Glc
# Method in brief: as §1
# [15] = target: GalNAc(b1-4)GlcNAc
# Method in brief: as §1
# [16] = target: GalNAc(b1-4)GlcNAc(b1-2)Man
# Method in brief: as §1
# [17] = target: GalNAc(b1-4)GlcNAc(b1-2)Man(a1-3)[GalNAc(b1-4)GlcNAc(b1-2)Man(a1-6)]Man(b1-4)GlcNAc(b1-4)GlcNAc
# Method in brief: as §1
# [18] = target: GalNAc(b1-4)GlcNAc(b1-3)GalNAc(b1-4)GlcNAc
# Method in brief: as §1
# [19] = target: GalNAc(b1-4)GlcNAc6S
# Method in brief: as §1
# [20] = target: GalNAc(b1-6)GalNAc
# Method in brief: as §1
# [21] = target: GalNAc3S(b1-4)GlcNAc
# Method in brief: as §1
# [22] = target: GalNAc3S(b1-4)GlcNAc3S
# Method in brief: as §1
# [23] = target: GalNAc3S(b1-4)[Fuc(a1-3)]GlcNAc
# Method in brief: as §1
# [24] = target: GalNAc4S6S(b1-4)GlcNAc
# Method in brief: as §1
# [25] = target: GalNAc6S(b1-4)GlcNAc
# Method in brief: as §1
# [26] = target: Glc(a1-4)Glc
# Method in brief: as §1
# [27] = target: Glc(a1-4)Glc(a1-4)Glc(a1-4)Glc
# Method in brief: as §1
# [28] = target: Glc(a1-6)Glc(a1-6)Glc
# Method in brief: as §1
# [29] = target: Glc(a1-6)Glc(a1-6)Glc(a1-6)Glc
# Method in brief: as §1
# [30] = target: Glc(b1-4)Glc
# Method in brief: as §1
# [31] = target: Glc(b1-6)Glc
# Method in brief: as §1
# [32] = target: GlcA(b1-3)Gal
# Method in brief: as §1
# [33] = target: GlcA(b1-3)GlcNAc
# Method in brief: as §1
# [34] = target: GlcA(b1-6)Gal
# Method in brief: as §1
# [35] = target: GlcA3S(b1-3)Gal(b1-4)GlcNAc(b1-2)Man
# Method in brief: as §1
# [36] = target: GlcA3S(b1-3)Gal(b1-4)GlcNAc(b1-3)Gal(b1-4)Glc
# Method in brief: as §1
# [37] = target: GlcNAc(a1-3)Gal(b1-4)GlcNAc
# Method in brief: as §1
# [38] = target: GlcNAc(a1-4)Gal(b1-3)GlcNAc
# Method in brief: as §1
# [39] = target: GlcNAc(a1-4)Gal(b1-4)GalNAc
# Method in brief: as §1
# [40] = target: GlcNAc(a1-4)Gal(b1-4)GlcNAc
# Method in brief: as §1
# [41] = target: GlcNAc(a1-4)Gal(b1-4)GlcNAc(b1-3)Gal(b1-4)Glc
# Method in brief: as §1
# [42] = target: GlcNAc(a1-4)Gal(b1-4)GlcNAc(b1-3)Gal(b1-4)GlcNAc
# Method in brief: as §1
# [43] = target: GlcNAc(a1-4)Gal(b1-4)GlcNAc(b1-3)Gal(b1-4)GlcNAc(b1-3)Gal(b1-4)GlcNAc
# Method in brief: as §1
# [44] = target: GlcNAc(a1-4)Gal(b1-4)GlcNAc(b1-3)Gal(b1-4)[Fuc(a1-3)]GlcNAc(b1-3)Gal(b1-4)[Fuc(a1-3)]GlcNAc
# Method in brief: as §1
# [45] = target: GlcNAc(a1-6)Gal(b1-4)GlcNAc
# Method in brief: as §1
binder,measurement,setting,value
LecB PA7 (Pseudomonas aeruginosa) (protein) MATQGVFTLPANTRFGVTAFANSSATQTVKVLVNNETAATFTGQSTNNAVIGSQVLNSGGGGKVQIQVSVNGRSSDLVSAQVILANELNVALVGSEDSTDNDYNDAVVVINWPLG,glycan array binding signal (z-score),[1],-0.48
same,glycan array binding signal (z-score),[2],-0.501
same,glycan array binding signal (z-score),[3],-0.508
same,glycan array binding signal (z-score),[4],-0.483
same,glycan array binding signal (z-score),[5],-0.478
same,glycan array binding signal (z-score),[6],-0.487
same,glycan array binding signal (z-score),[7],-0.392
same,glycan array binding signal (z-score),[8],-0.493
same,glycan array binding signal (z-score),[9],-0.503
same,glycan array binding signal (z-score),[10],-0.515
same,glycan array binding signal (z-score),[11],-0.48
same,glycan array binding signal (z-score),[12],-0.37
same,glycan array binding signal (z-score),[13],-0.498
same,glycan array binding signal (z-score),[14],-0.462
same,glycan array binding signal (z-score),[15],-0.511
same,glycan array binding signal (z-score),[16],-0.496
same,glycan array binding signal (z-score),[17],-0.488
same,glycan array binding signal (z-score),[18],-0.263
same,glycan array binding signal (z-score),[19],-0.515
same,glycan array binding signal (z-score),[20],-0.506
same,glycan array binding signal (z-score),[21],-0.508
same,glycan array binding signal (z-score),[22],-0.517
same,glycan array binding signal (z-score),[23],0.903
same,glycan array binding signal (z-score),[24],-0.512
same,glycan array binding signal (z-score),[25],-0.519
same,glycan array binding signal (z-score),[26],-0.499
same,glycan array binding signal (z-score),[27],-0.495
same,glycan array binding signal (z-score),[28],-0.456
same,glycan array binding signal (z-score),[29],-0.482
same,glycan array binding signal (z-score),[30],-0.472
same,glycan array binding signal (z-score),[31],-0.475
same,glycan array binding signal (z-score),[32],-0.499
same,glycan array binding signal (z-score),[33],-0.499
same,glycan array binding signal (z-score),[34],-0.481
same,glycan array binding signal (z-score),[35],-0.508
same,glycan array binding signal (z-score),[36],-0.504
same,glycan array binding signal (z-score),[37],-0.505
same,glycan array binding signal (z-score),[38],-0.514
same,glycan array binding signal (z-score),[39],-0.414
same,glycan array binding signal (z-score),[40],-0.509
same,glycan array binding signal (z-score),[41],-0.505
same,glycan array binding signal (z-score),[42],-0.483
same,glycan array binding signal (z-score),[43],-0.495
same,glycan array binding signal (z-score),[44],1.77
same,glycan array binding signal (z-score),[45],-0.502
